In all, about 310,000 compounds went through this assay and about 2,200 (0.71%) showed an effect of 50% or more. Effects have a minus sign here. This is one part of the list.
Each compound was assayed against human ether-à-go-go-related gene (hERG) potassium channel (human, UniProt Q12809) (assay: primary screen, population patch clamp on CHO cells stably expressing hERG).
Chain of human ether-à-go-go-related gene (hERG) potassium channel (Q12809 whole entry, looked up): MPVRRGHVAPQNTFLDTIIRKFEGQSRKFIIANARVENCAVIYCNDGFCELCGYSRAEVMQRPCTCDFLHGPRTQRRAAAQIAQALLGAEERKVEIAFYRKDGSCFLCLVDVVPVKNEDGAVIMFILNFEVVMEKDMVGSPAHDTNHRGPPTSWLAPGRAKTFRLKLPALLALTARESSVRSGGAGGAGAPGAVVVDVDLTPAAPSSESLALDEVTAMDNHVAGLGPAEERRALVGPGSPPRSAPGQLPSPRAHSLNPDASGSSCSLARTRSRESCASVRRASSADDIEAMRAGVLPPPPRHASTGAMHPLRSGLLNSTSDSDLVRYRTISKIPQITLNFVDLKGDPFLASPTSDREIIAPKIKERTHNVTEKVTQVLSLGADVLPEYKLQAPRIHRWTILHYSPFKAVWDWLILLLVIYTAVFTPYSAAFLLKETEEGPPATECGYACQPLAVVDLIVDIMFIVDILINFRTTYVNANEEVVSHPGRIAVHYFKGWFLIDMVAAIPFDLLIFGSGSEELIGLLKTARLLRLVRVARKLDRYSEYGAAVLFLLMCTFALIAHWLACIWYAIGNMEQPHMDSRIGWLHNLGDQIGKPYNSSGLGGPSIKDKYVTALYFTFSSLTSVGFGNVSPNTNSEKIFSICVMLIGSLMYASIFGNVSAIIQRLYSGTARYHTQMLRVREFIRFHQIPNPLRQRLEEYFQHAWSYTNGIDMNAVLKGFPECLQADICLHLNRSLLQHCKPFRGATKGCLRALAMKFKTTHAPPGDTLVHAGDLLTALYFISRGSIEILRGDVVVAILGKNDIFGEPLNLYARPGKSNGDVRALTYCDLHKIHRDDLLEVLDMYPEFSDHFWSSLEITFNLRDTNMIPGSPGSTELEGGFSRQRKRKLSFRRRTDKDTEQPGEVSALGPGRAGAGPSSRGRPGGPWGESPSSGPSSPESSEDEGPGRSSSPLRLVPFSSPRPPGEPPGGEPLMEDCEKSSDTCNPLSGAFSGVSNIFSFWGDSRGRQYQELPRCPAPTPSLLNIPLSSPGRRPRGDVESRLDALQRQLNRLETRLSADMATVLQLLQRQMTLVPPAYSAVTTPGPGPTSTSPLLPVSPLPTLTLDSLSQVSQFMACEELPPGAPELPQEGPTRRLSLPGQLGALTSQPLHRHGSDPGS

Row | SMILES | hERG current change (%, negative = inhibition) at 1uM [%]
1 | Cc1csc(NC(=O)CSc2nccn2Cc2ccco2)n1 | 10.6
2 | Cc1ccc2c(c1)C1CN(C)CCC1N2C(=O)c1ccccc1NS(=O)(=O)c1cccc(C(F)(F)F)c1.Cl (centres unmarked) | 4.6
3 | O=C(NNC1OC(CO)C(O)C(O)C1O)c1cccc(Br)c1 (centres unmarked) | 13
4 | CC1CCN(c2c(NCc3ccc(C(=O)NCCc4ccc(Cl)cc4)cc3)c(=O)c2=O)CC1 | 2.07
5 | CC(=O)N1CCN(c2ccc(NC(=S)NC(=O)COc3ccc(C(C)(C)C)cc3)cc2)CC1 | 14
6 | Cc1nc2ncnn2c(C)c1CCC(=O)N1CCC2(CC1)OCCO2 | 8.92
7 | O=C1CN2NC(=S)N(c3ccc(Cl)cc3)C2=CN1c1ccc(Cl)cc1 | 8.22
8 | CC(C)(CN1CCC(Cc2ccccc2)CC1)NS(=O)(=O)c1ccccc1.O=C(O)C(=O)O | 0.0371
9 | COC(=O)c1cc(S(=O)(=O)N2CCN(c3ccccc3OC)CC2)cn1C | 21.8
10 | CC(=O)Nc1ccc(S(=O)(=O)NCC(=O)NCCc2ccc(S(N)(=O)=O)cc2)cc1 | 6.09
11 | COC(=O)c1ccccc1NC(=O)CSc1ccccc1 | 4.11
12 | COc1ccccc1NC(=O)COc1ccc(/C=N/n2cnnc2)cc1OC | 7.74
13 | Cc1cccc2cc(CN(Cc3ccccc3)C(=O)c3cccc(F)c3)c(Cl)nc12 | 10.2
14 | Cc1onc(NC(=O)NC(=O)c2c(Cl)cccc2Cl)c1Br | 1.14
15 | Cc1c(Br)c([N+](=O)[O-])nn1CCCC(=O)N1CCN(c2ccccc2)CC1 | -19.4
16 | Cc1cc(C)cc(NC(=O)CCCn2nc(C)c3c(C)n(-c4ccccc4)nc3c2=O)c1 | -2.35
17 | CCn1c(CCNC(=O)c2cccs2)nnc1SCC(=O)c1ccc(OC)cc1 | 1.48
18 | NP(=O)(OCCCCc1ccccc1)Oc1ccccc1Cl (centres unmarked) | 8.2
19 | Cc1c(C(=O)OCC(=O)NC2CCCCC2)oc2ccccc12 | 4.34
20 | O=C(/C=C/c1ccc(Cl)cc1)c1cccnc1 | -7.66
21 | Cc1cc(O)c(C(=O)c2ccccc2C(=O)O)cc1C | 0.388
22 | O=[N+]([O-])c1ccc(OCn2cncn2)cc1 | -3.03
23 | Cc1sc(N)nc1-c1cccs1 | 17.7

Row | SMILES | hERG current change (%, negative = inhibition) at 1uM [%]
24 | O=C(NCCCN1CCOCC1)c1ccc2c(c1)N(Cc1c(F)cccc1Cl)C(=O)c1ccccc1S2 | 15.3
25 | Cc1cc(C)n2c(SCCN3C(=O)c4ccccc4C3=O)nnc2n1 | 5.18
26 | CCOC(=O)C1CCN(C(=O)c2ccc(OCC(=O)N3CCOCC3)c(OC)c2)CC1 | 8.24
27 | CNC(C)C#Cc1ccc2c(=O)c3ccccc3oc2c1 (centres unmarked) | 9.85
28 | CCN(CC)C(=S)SCC(=O)Nc1ncc2c(n1)CCCC2=O | -1.98
29 | O=C(c1ccc(Cl)cc1)N1CCC(C(=O)N2CCN(c3ncccn3)CC2)CC1 | -13.6
30 | O=C(CCCCCn1nnc2ccccc2c1=O)Nc1ccccc1F | 14.2
31 | Cn1c(NC(=O)c2ccccc2Br)cc(=O)n(C)c1=O | 6.96
32 | CC(C)(C)OC(=O)n1cc(/C=N/NC(=O)c2ccco2)c2ccccc21 | 10.5
33 | CN(C)S(=O)(=O)c1ccc(C(=O)NCc2ccc3[nH]c4c(c3c2)CCCC4)cc1 | 9.94
34 | COc1cccc(C(=O)Nc2ccc(C)cc2)c1 | 11.4
35 | O=c1[nH][nH]c(-c2ccccc2)c1C=Nc1ccc(Cl)cc1 | -1.29
36 | C[C@H]1CN=C(Nc2ccccc2)N1CC1CCCCCC1 | -0.572
37 | OC(CCNCCc1c[nH]c2ccccc12)C(F)(F)Cl (centres unmarked) | 6.3
38 | Cc1cc2nc(N)sc2cc1C | 9.7
39 | CCC(CC)C(=O)c1c[nH]c(C(=O)NCCCn2ccnc2)c1 | 12.8
40 | COCC(=O)NC1CC2CCCC(C1)N2Cc1ccccc1 (centres unmarked) | -3.16
41 | Cc1ccc(S(=O)(=O)N(CC(=O)NCc2cccnc2)c2ccc(F)cc2)cc1 | -38.1
42 | CC1CCC(C(=O)NC(C(=O)N2CCC(N3CCCCC3)CC2)C(C)C)CC1 (centres unmarked) | -4.71
43 | C=CCNC(=O)CC(=O)N/N=C/c1ccccc1F | 13
44 | COc1cc(NC(=O)CN(C)S(=O)(=O)c2cccs2)cc(OC)c1 | 6.03
45 | COc1cccc2cc(C(C)N(CCCN3CCOCC3)C(=O)Nc3ccc(Cl)cc3)oc12 (centres unmarked) | 2.5
46 | CCOC(=O)c1[nH]ncc1CN1CCCC(C(=O)c2ccc(OC)cc2C)C1 (centres unmarked) | -16.3

Row | SMILES | hERG current change (%, negative = inhibition) at 1uM [%]
47 | CC(NC(=O)C(Cc1ccccc1)N1C(=O)C2C3CCC(C3)C2C1=O)c1ccccc1 (centres unmarked) | 7.26
48 | CC(=O)N1CCc2[nH]c3ccccc3c2C1 | 6.02
49 | COc1cc(NC(=O)CCc2nnc3ccc(N4CCCCC4)nn23)cc(OC)c1OC | 15.6
50 | O=C(Cc1ccccc1)NCCS(=O)c1ccc(Cl)cc1 (centres unmarked) | 5.39
51 | O=C(NC1CCCC1)c1ccc(CS(=O)(=O)c2ccc(Cl)cc2)o1 | 13.6
52 | CC(=O)c1ccc(OC2OCCOC2Oc2ccc(C(C)=O)cc2)cc1 (centres unmarked) | 4.2
53 | COc1ccc(/C=C(/NC(=O)c2ccco2)C(=O)N2CCCC2=O)cc1 | -0.011
54 | N/C(=N\OC(=O)Cc1ccccc1[N+](=O)[O-])c1cccnc1 | 2.4
55 | COc1ccc(OCc2cc(C(=O)N(C)CCC3CCOCC3)no2)c(Cl)c1 | -3.47
56 | CNC(=O)c1cc2cc(OC)ccc2oc1=O | -4.3
57 | COc1cc(CNC(=O)C2CCCC2)cc(OC)c1OC | 16.7
58 | CC(C)CNC(=O)C1CCCN(S(=O)(=O)c2ccc(-n3cnnn3)cc2)C1 (centres unmarked) | 10.6
59 | O=C(Nc1ccc(-c2csc(-c3ccccc3)n2)cc1)c1ccccc1Cl | 16.9
60 | COCCn1c(SCc2cccc(F)c2)nc2cc(C(=O)OC)ccc2c1=O | 12
61 | COC(=O)CN(C)C(=O)CC1C(=O)NCCN1CC(C)(C)C (centres unmarked) | 6.96
62 | CC(=O)c1nn(-c2ccc(Br)cc2)cc1C(=O)c1ccccc1 | 18.2
63 | Cc1ccnc(SCCn2c(N3CCC(C)CC3)nc3c2c(=O)n(C)c(=O)n3C)n1 | 6.01
64 | COc1ccc(Cn2c(=O)[nH]c3cc(C(=O)NCCCN4CCCC4)ccc3c2=O)cc1 | 10.3
65 | CCC(Oc1ccccc1)C(=O)Nc1nnc(S(=O)(=O)Nc2ccccc2)s1 (centres unmarked) | 13.7
66 | O=C(COC(=O)Cc1ccccc1F)NCCNC(=O)COC(=O)Cc1ccccc1F | 2.96
67 | Nc1ccc(OC(=O)Nc2ccc(O)cc2)cc1 | 8.06
68 | O=C1CC(c2cccc([N+](=O)[O-])c2)c2cc3c(cc2N1)CCC3 (centres unmarked) | 9.55
69 | O=C(Nc1ccccc1)C1=C[C@@H](C2CC2)C[C@@H](OCCCCO)O1 | 8.07

Row | SMILES | hERG current change (%, negative = inhibition) at 1uM [%]
70 | O=C(NC12CC3CC(CC(C3)C1)C2)N1CCN(c2nc(-c3ccccc3)cs2)CC1 | 10.7
71 | CC(C)OC(=O)CSc1nc(C(C)C)nc2ccccc12 | 13.3
72 | CCOC(=O)CCc1c(C)c(C#N)c2[nH]c3ccccc3n2c1=O | 0.662
73 | CCOC(=O)N1CCC2(O)CCCCC2C1c1ccc(F)cc1 (centres unmarked) | 13.1
74 | CCOc1ccc(-n2c(C)nc3cc(C(=O)NCCN4CCOCC4)ccc32)cc1 | -3.45
75 | CN(NC(=O)Nc1ccc(Cl)cc1)c1c(Cl)c(Cl)nn1C | 10.6
76 | O=c1[nH]c(=O)n(-c2ccc(F)cc2)c2c1C(C(F)(F)F)(C(F)(F)F)N=C(c1ccc(F)cc1)N2 | 4.49
77 | CC(C)Cn1c(SC(C)C(=O)NC2CC2)nnc1-c1ccccc1F (centres unmarked) | 5.43
78 | COc1ccc([N+](=O)[O-])cc1/C=N/NC(=O)CNC(=O)C(c1ccccc1)c1ccccc1 | 7.17
79 | CCO[C@H]1OC(C(=O)N2CCN(C)CC2)=C[C@@H](C)[C@@H]1CCCO | 10.6
80 | COCCCNC(=O)[C@H](Cc1c[nH]c2ccccc12)NC(=O)OCc1ccccc1 | 7.4
81 | CC(C#N)(NC(=O)CN1CCN(S(=O)(=O)c2ccc(Br)cc2Cl)CC1)C1CC1 (centres unmarked) | -1.16
82 | Clc1ccccc1CN1CCC(Cc2ccccc2)CC1 | -1.9
83 | Cc1ccc(N=Cc2ccc(N(C)C)cc2)cc1 | -3.31
84 | CCN(CC1CCCO1)C(=O)CCc1nnc(CCc2ccc(OC)cc2)o1 (centres unmarked) | 17.4
85 | Cc1nc2c(sc(=S)n2Cc2ccco2)c(=O)n1CC(=O)Nc1ccccc1 | -8.64
86 | O=C(CN1C(=O)NC2(CCCc3ccccc32)C1=O)Nc1ccccc1OC(F)F (centres unmarked) | 7.85
87 | COc1ccccc1N1C(=O)c2ccc(C(=O)Nc3cccc(C(C)=O)c3)cc2C1=O | 7.08
88 | O=C(Oc1cccc(O)c1)C1CCCCC1 | 9.61
89 | NCC(c1ccc(Cl)cc1Cl)c1c[nH]c2ccccc12 (centres unmarked) | 17.2

Reference: paper PMC4336329 (PLoS ONE, 2015)
